# In PubChem BioAssay (Tox21):
# Inconclusive means that the source gave no clear call. Such entries were picked first, then a sample of the others. For part of these data: Potencies beside an inconclusive call are fits to weak or partial responses and may not hold up. Calls of active or inactive are those of the source. Unless noted, calls follow the shape of the dose curve; as a rule, active = well fitted curve in the direction sought with a large enough effect in the repeat runs; inconclusive = weak or mixed curves; inactive = no such curve, though single readings can be large; an effect the other way counts as inactive or inconclusive.
# Key:
# [1] = qHTS assay to identify small molecule agonists of the estrogen related receptor (ERR) signaling pathway from Tox21 library (AID 1224849; calls by dose curve; also: % is scaled to controls: 0 for no effect and ±100 for the full control effect; nearly all actives have a fitted effect of over 15% in size); conditions: ERR reporter cell line, ONE-Glo luciferase, 18 h; at 92.4 µM (top of the series) unless noted
# How it was run: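 Tox21 compounds tested for ERR agonism in an NTP reporter cell line: 18 h treatment at 37 C, then ONE-Glo luminescence.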
# [2] = qHTS assay to identify small molecule antagonists of the estrogen related receptor (ERR) signaling pathway from Tox21 library (AID 1224848); also: potency is read from the fitted curve at half-maximal effect; nearly all actives have a fitted effect of over 50% in size
# How it was run: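 Quantitative high-throughput format: ERR reporter cells (2,000/well) pre-incubated 6 h, treated 18 h at 37 C with compounds in DMSO alongside positive and negative controls, then read by ONE-Glo luminescence.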
# [3] = qHTS RealTime-Glo MT Cell Viability Assay in HEK293 cells - 32 hour (AID 1224868); also: potency is read from the fitted curve at half-maximal effect; nearly all actives have a fitted effect of over 50% in size
# How it was run: (§1)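 HEK293 cells were seeded at 600 cells/well together with NanoLuc luciferase and cell-permeant prosubstrate, preincubated 5 h at 37 C/5% CO2, then given compound in DMSO by pintool. Luminescence from viable-cell prosubstrate reduction was read repeatedly over 40 h.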
# [4] = qHTS RealTime-Glo MT Cell Viability Assay in HEK293 cells - 16 hour (AID 1224872); also: nearly all actives have a fitted effect of over 50% in size; also: potency is read from the fitted curve at half-maximal effect
# How it was run: as §1
# [5] = qHTS RealTime-Glo MT Cell Viability Assay in HEK293 cells - 0 hour (AID 1224880); also: nearly all actives have a fitted effect of over 45% in size; also: potency is read from the fitted curve at half-maximal effect
# How it was run: (§2)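 HEK293 + NanoLuc + prosubstrate, 600 cells/well; 5 h, 37 C/5% CO2; compound 23 nL in DMSO by pintool; 37 C; luminescence read at 0, 8, 16, 24, 32 and 40 h time points.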
# [6] = qHTS RealTime-Glo MT Cell Viability Assay in HepG2 cells - 40 hour (AID 1224870); also: % is scaled to controls: 0 for no effect and ±100 for the full control effect; nearly all actives have a fitted effect of over 50% in size
# How it was run: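 HepG2 cells (600/well) mixed with RealTime-Glo MT reagent, settled 5 h at 37 C/5% CO2 before compound addition. Nonlytic NanoLuc luminescence from viable-cell prosubstrate reduction read repeatedly during 40 h treatment at 37 C.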
# [7] = A CellTox Green Cytotoxicity Assay to monitor cytotoxicity in HEK293 cells - 40 hour (AID 1224871); also: potency is read from the fitted curve at half-maximal effect; nearly all actives have a fitted effect of over 45% in size
# How it was run: (§3)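 Tox21 screen in HEK293: membrane-impermeant cyanine dye fluoresces on binding dead-cell DNA; compound pinned 5 h post-seeding, plates held at 37 C, signal read repeatedly through 40 h.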
# [8] = A CellTox Green Cytotoxicity Assay to monitor cytotoxicity in HEK293 cells - 32 hour (AID 1224881); also: nearly all actives have a fitted effect of over 40% in size; also: potency is read from the fitted curve at half-maximal effect
# How it was run: as §3
# [9] = A CellTox Green Cytotoxicity Assay to monitor cytotoxicity in HEK293 cells - 0 hour (AID 1224869)
# How it was run: as §3
# [10] = A CellTox Green Cytotoxicity Assay to monitor cytotoxicity in HepG2 cells - 24 hour (AID 1224878); also: % is scaled to controls: 0 for no effect and ±100 for the full control effect; nearly all actives have a fitted effect of over 45% in size
# How it was run: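 Measurements at 0, 8, 16, 24, 32 and 40 h of treatment captured CellTox Green fluorescence in HepG2 cells that had been co-plated with reagent and preincubated 5 h at 37 C/5% CO2.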
# [11] = qHTS RealTime-Glo MT Cell Viability Assay in HEK293 cells - 40 hour (AID 1224874); conditions: RealTime-Glo luminescence; max response: active compounds read low
# How it was run: as §2
# Tags tell the direction and shape of the fitted curve.
compound,measurement,setting,value
BrCCOc1ccccc1,"activity change, positive = activation",[1],inconclusive: 13.5%
CC(CCl)OP(=O)(OC(C)CCl)OC(C)CCl (configuration not stated),Potency,[2],"inconclusive: 61.3 µM [inhibitor, single point]"
same,Potency,[3],"inconclusive: 31 µM [cytotoxic, partial curve]"
same,Potency,[4],"inconclusive: 31 µM [cytotoxic, partial curve, poor fit]"
CCCCCC[C@@H](CCC)C(=O)O,Potency,[2],"inconclusive: 29.8 µM [inhibitor, single point]"
same,Potency,[5],"inconclusive: 8.49 µM [rising, partial curve, poor fit]"
Cc1ccc([N+](=O)[O-])cc1Cl,"activity change, positive = activation",[1],active: 14.6%
CCC(=O)Oc1ccc(/C(CC)=C(\CC)c2ccc(OC(=O)CC)cc2)cc1,Potency,[2],active: 27.3 µM
same,Potency,[3],active: 17.4 µM
same,Potency,[4],active: 24.5 µM
CCC(C)(CCC(C)C)C(=O)[O-].CCC(C)(CCC(C)C)C(=O)[O-].[Zn+2] (configuration not stated),Potency,[2],"inconclusive: 30.6 µM [inhibitor, partial curve]"
same,Potency,[6],inactive
CC/C=C\C/C=C\C/C=C\CCCCCCCC(=O)OCC,Potency,[2],inconclusive: 62.5 µM [inhibitor]
same,Potency,[6],inactive
same,Potency,[7],"inconclusive: 56.2 µM [activator, single point]"
same,Potency,[5],"inconclusive: 15.8 µM [falling, partial curve]"
same,Potency,[8],inactive
CC(C)=CCO,"activity change, positive = activation",[1],inconclusive: 11.7%
same,Potency,[9],inactive
CCOC(=O)CS,Potency,[2],"inconclusive: 49.9 µM [inhibitor, partial curve]"
same,Potency,[10],inactive
CCC(=O)c1c(O)cc(O)cc1O,Potency,[2],"inconclusive: 29.8 µM [inhibitor, partial curve, poor fit]"
same,Potency,[7],"inconclusive: 5.35 µM [activator, single point]"
same,Potency,[4],inactive
same,max response,[11],inactive: 11.1%
same,Potency,[5],inactive
same,Potency,[8],"inconclusive: 5.35 µM [activator, single point]"
